Reference: PMC10300122
Results are given in words; binding and its absence hold for the method and conditions named. Binding seen in cells or lysates may run through a third protein. Some results given as binding are weak or reduced against the parent protein; the word gives no strength. For part of these data: Where a sequence is shown, tags or fusion partners need not be part of it.

T1: ALKBH5-FLAG 70-75 Del (UniProt Q6P6C2)
T1 sequence: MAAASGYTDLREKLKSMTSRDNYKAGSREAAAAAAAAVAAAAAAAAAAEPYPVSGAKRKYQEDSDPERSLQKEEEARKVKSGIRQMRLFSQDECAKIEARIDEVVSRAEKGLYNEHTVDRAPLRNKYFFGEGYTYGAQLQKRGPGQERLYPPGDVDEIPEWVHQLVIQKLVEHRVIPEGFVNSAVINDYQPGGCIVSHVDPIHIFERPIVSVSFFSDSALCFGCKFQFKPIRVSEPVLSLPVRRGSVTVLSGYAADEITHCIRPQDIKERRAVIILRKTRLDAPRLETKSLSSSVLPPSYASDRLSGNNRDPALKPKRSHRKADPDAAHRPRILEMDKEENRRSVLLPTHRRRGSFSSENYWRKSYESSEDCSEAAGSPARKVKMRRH

T2: endogenous PSPC1 (human (endogenous in HeLa)) (UniProt Q8WXF1)
T2 sequence: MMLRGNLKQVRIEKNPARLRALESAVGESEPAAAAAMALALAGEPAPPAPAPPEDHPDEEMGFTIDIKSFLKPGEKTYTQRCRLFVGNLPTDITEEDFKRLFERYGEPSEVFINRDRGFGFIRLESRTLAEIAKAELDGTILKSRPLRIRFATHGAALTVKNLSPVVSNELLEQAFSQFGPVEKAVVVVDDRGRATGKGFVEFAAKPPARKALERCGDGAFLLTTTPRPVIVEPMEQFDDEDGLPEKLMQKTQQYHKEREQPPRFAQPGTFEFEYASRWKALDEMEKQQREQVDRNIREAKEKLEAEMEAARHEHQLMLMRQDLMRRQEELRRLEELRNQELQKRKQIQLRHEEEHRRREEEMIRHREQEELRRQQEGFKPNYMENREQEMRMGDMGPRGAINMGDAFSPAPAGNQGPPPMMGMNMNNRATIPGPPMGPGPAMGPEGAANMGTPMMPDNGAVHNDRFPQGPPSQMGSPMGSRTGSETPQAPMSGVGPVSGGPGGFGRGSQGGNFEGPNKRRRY

B1: endogenous PSPC1 (protein, UniProt Q8WXF1 1-523)
chain: T2 sequence
B2: endogenous NONO (protein, UniProt Q15233 1-471)
chain: MQSNKTFNLEKQNHTPRKHHQHHHQQQHHQQQQQQPPPPPIPANGQQASSQNEGLTIDLKNFRKPGEKTFTQRSRLFVGNLPPDITEEEMRKLFEKYGKAGEVFIHKDKGFGFIRLETRTLAEIAKVELDNMPLRGKQLRVRFACHSASLTVRNLPQYVSNELLEEAFSVFGQVERAVVIVDDRGRPSGKGIVEFSGKPAARKALDRCSEGSFLLTTFPRPVTVEPMDQLDDEEGLPEKLVIKNQQFHKEREQPPRFAQPGSFEYEYAMRWKALIEMEKQQQDQVDRNIKEAREKLEMEMEAARHEHQVMLMRQDLMRRQEELRRMEELHNQEVQKRKQLELRQEEERRRREEEMRRQQEEMMRRQQEGFKGTFPDAREQEIRMGQMAMGGAMGINNRGAMPPAPVPAGTPAPPGPATMMPDGTLGLTPPTTERFGQAATMEGIGAIGGTPPAFNRAAPGAEFAPNKRRRY
B3: HDAC7-FLAG (enzyme, UniProt Q8WUI4 1-952)
chain: MDLRVGQRPPVEPPPEPTLLALQRPQRLHHHLFLAGLQQQRSVEPMRLSMDTPMPELQVGPQEQELRQLLHKDKSKRSAVASSVVKQKLAEVILKKQQAALERTVHPNSPGIPYRTLEPLETEGATRSMLSSFLPPVPSLPSDPPEHFPLRKTVSEPNLKLRYKPKKSLERRKNPLLRKESAPPSLRRRPAETLGDSSPSSSSTPASGCSSPNDSEHGPNPILGSEALLGQRLRLQETSVAPFALPTVSLLPAITLGLPAPARADSDRRTHPTLGPRGPILGSPHTPLFLPHGLEPEAGGTLPSRLQPILLLDPSGSHAPLLTVPGLGPLPFHFAQSLMTTERLSGSGLHWPLSRTRSEPLPPSATAPPPPGPMQPRLEQLKTHVQVIKRSAKPSEKPRLRQIPSAEDLETDGGGPGQVVDDGLEHRELGHGQPEARGPAPLQQHPQVLLWEQQRLAGRLPRGSTGDTVLLPLAQGGHRPLSRAQSSPAAPASLSAPEPASQARVLSSSETPARTLPFTTGLIYDSVMLKHQCSCGDNSRHPEHAGRIQSIWSRLQERGLRSQCECLRGRKASLEELQSVHSERHVLLYGTNPLSRLKLDNGKLAGLLAQRMFVMLPCGGVGVDTDTIWNELHSSNAARWAAGSVTDLAFKVASRELKNGFAVVRPPGHHADHSTAMGFCFFNSVAIACRQLQQQSKASKILIVDWDVHHGNGTQQTFYQDPSVLYISLHRHDDGNFFPGSGAVDEVGAGSGEGFNVNVAWAGGLDPPMGDPEYLAAFRIVVMPIAREFSPDLVLVSAGFDAAEGHPAPLGGYHVSAKCFGYMTQQLMNLAGGAVVLALEGGHDLTAICDASEACVAALLGNRVDPLSEEGWKQKPNLNAIRSLEAVIRVHSKYWGCMQRLASCPDSWVPRVPGADKEEVEAVTALASLSVGILAEDRPSEQLVEEEEPMNL

Columns and labels:
[1] = target: T1, ALKBH5-FLAG 70-75 Del; assay: co-IP; ALKBH5-FLAG mutants transfected into ALKBH5 KO HeLa cells; precipitated with anti-FLAG; endogenous PSPC1 detected
[2] = target: ALKBH5 (in untransfected HeLa cells) (human (endogenous in HeLa)) (UniProt Q6P6C2); assay: co-IP; HeLa cells serum starved (0% FBS) for different times, or stimulated with 10% FBS after 2 days of serum deprivation; who was precipitated is not told
[3] = target: ALKBH5-FLAG K235Q (UniProt Q6P6C2); assay: co-IP; ALKBH5 KO HeLa cells stably re-expressing ALKBH5-FLAG wild type, K235R or K235Q; precipitated with anti-FLAG (Fig. 6c) or anti-PSPC1 (Fig. 6d); western blot of endogenous PSPC1, NONO, SFPQ
[4] = target: wild-type ALKBH5-FLAG (UniProt Q6P6C2); assay: as above
[5] = target: T2, endogenous PSPC1 (human (endogenous in HeLa)); assay: as above
[6] = target: ALKBH5-FLAG K235R (UniProt Q6P6C2); assay: as above
[7] = target: ALKBH5-HA (UniProt Q6P6C2); assay: co-IP; ALKBH5-HA and HDAC7-FLAG cotransfected into HeLa cells; precipitated with anti-FLAG (Fig. 3b) or anti-HA (Fig. 3c); western blot

Row | Binder | binding [1] | binding [2] | binding [3] | binding [4] | binding [5] | binding [6] | binding [7]
1 | B1 | no binding | binds | binds | binds |  |  | 
2 | B2 |  |  | no binding | no binding | binds | no binding | 
3 | B3 |  |  |  |  |  |  | binds
